Measurements taken from the supplement of paper PMC10369915.
The other results are listed elsewhere or left out. Rule as the data show it: active = 3.2 or more and inactive = the rest. Most of these values are background signal.

Experiments:
Test in all cases: enrichment score (SH2-bound / input frequency) (ratio); bacterial display of known human phosphotyrosine sites (pTyr-Var adds point mutants) read by sequencing; higher = stronger binding; tyrosines were phosphorylated by kinases first
Conditions in all cases: peptide library: Human pTyr
[1] = target: SHP2 C-SH2 domain E139D
[2] = target: SHP2 C-SH2 domain wild-type
[3] = target: SHP2 N-SH2 domain L43F
[4] = target: SHP2 N-SH2 domain T42A
[5] = target: SHP2 N-SH2 domain T52S
[6] = target: SHP2 N-SH2 domain wild-type

Measured: enrichment score
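Also: displayed peptides selected on beads carrying the immobilized SH2 domain, with library peptides lacking any tyrosine serving as negative controls.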

B1: ERBB3_HUMAN_1289 (peptide)
chain: CPASEQGYEEMRAFQ
inactive: [1] 1.3 | [2] 0.985 | [3] 1.11 | [4] 1.05 | [5] 1.25 | [6] 1.34

B2: ADRB2_HUMAN_141 (peptide)
chain: AITSPFKYQSLLTKN
inactive: [1] 1.03 | [2] 1.01 | [3] 1.26 | [4] 1.03 | [5] 0.989 | [6] 1.15

B3: ERBB3_HUMAN_1262 (peptide)
chain: TPDEDYEYMNRQRDG
inactive: [1] 0.608 | [2] 1.06 | [3] 0.951 | [4] 0.873 | [5] 0.709 | [6] 0.994

B4: EPHA5_HUMAN_656_YA (peptide)
chain: TAIDPHTYEDPNQAV
inactive: [1] 0.739 | [2] 0.564 | [3] 0.652 | [4] 0.709 | [5] 0.628 | [6] 0.818

B5: ERBB3_HUMAN_1276 (peptide)
chain: GGGPGGDYAAMGACP
inactive: [1] 0.866 | [2] 0.685 | [3] 0.732 | [4] 0.734 | [5] 0.736 | [6] 0.957

B6: EPHB1_HUMAN_600 (peptide)
chain: IYIDPFTYEDPNEAV
inactive: [1] 1.12 | [2] 1.01 | [3] 0.909 | [4] 1.13 | [5] 1.25 | [6] 0.896

B7: ERBB4_HUMAN_1056 (peptide)
chain: GHSPPPAYTPMSGNQ
inactive: [1] 0.676 | [2] 0.656 | [3] 0.751 | [4] 0.685 | [5] 0.791 | [6] 0.869

B8: ERBB2_HUMAN_1221 (peptide)
chain: SPAFDNLYYWDQDPP
inactive: [1] 0.776 | [2] 0.858 | [3] 0.697 | [4] 0.84 | [5] 0.907 | [6] 0.877

B9: EPHA3_HUMAN_602_YA (peptide)
chain: TAVDPHTYEDPTQAV
inactive: [1] 0.774 | [2] 0.752 | [3] 0.746 | [4] 0.58 | [5] 0.728 | [6] 0.709

B10: EPHB1_HUMAN_778 (peptide)
chain: DDTSDPTYTSSLGGK
inactive: [1] 0.763 | [2] 0.548 | [3] 0.536 | [4] 0.537 | [5] 0.57 | [6] 0.622

B11: ERBB2_HUMAN_1221_YA (peptide)
chain: SPAFDNLYAWDQDPP
inactive: [1] 0.536 | [2] 0.428 | [3] 0.765 | [4] 0.695 | [5] 0.471 | [6] 0.894

B12: EPOR_HUMAN_504 (peptide)
chain: AEPLPPSYVACSGGG
inactive: [1] 0.641 | [2] 0.406 | [3] 0.536 | [4] 0.393 | [5] 0.201 | [6] 0.28

B13: EPHB3_HUMAN_614_YA (peptide)
chain: VAIDPFTYEDPNEAV
inactive: [1] 0.87 | [2] 0.827 | [3] 0.682 | [4] 0.813 | [5] 1.05 | [6] 0.969

B14: EPHB2_HUMAN_780 (peptide)
chain: DDTSDPTYTSALGGK
inactive: [1] 0.723 | [2] 0.608 | [3] 0.638 | [4] 0.621 | [5] 0.65 | [6] 0.603

B15: EPHA5_HUMAN_650_YA (peptide)
chain: KLPGVRTYIDPHTAE
inactive: [1] 0.823 | [2] 0.794 | [3] 0.707 | [4] 0.68 | [5] 0.708 | [6] 0.708

B16: EPHA4_HUMAN_602_YA (peptide)
chain: TAVDPFTYEDPNQAV
inactive: [1] 0.772 | [2] 0.645 | [3] 1.1 | [4] 0.77 | [5] 0.656 | [6] 0.457

B17: ERBB3_HUMAN_1260_YA (peptide)
chain: GTTPDEDYEAMNRQR
inactive: [1] 0.646 | [2] 0.606 | [3] 0.47 | [4] 0.682 | [5] 0.606 | [6] 0.743

B18: EPHA2_HUMAN_960 (peptide)
chain: GHQKRIAYSLLGLKD
inactive: [1] 1.12 | [2] 0.965 | [3] 0.939 | [4] 1.42 | [5] 1.15 | [6] 1.18

B19: ERBB3_HUMAN_1328 (peptide)
chain: SAFDNPDYWHSRLFP
inactive: [1] 0.68 | [2] 0.686 | [3] 0.605 | [4] 0.579 | [5] 0.746 | [6] 0.755

B20: EPOR_HUMAN_489 (peptide)
chain: DGPYSNPYENSLIPA
inactive: [1] 0.697 | [2] 0.489 | [3] 0.62 | [4] 0.429 | [5] 0.515 | [6] 0.456

B21: ERBB3_HUMAN_1222 (peptide)
chain: SSLEELGYEYMDVGS
inactive: [1] 0.893 | [2] 0.818 | [3] 0.774 | [4] 0.953 | [5] 0.798 | [6] 0.768

B22: EPHA2_HUMAN_930 (peptide)
chain: EHFMAAGYTAIEKVV
inactive: [1] 0.891 | [2] 1.55 | [3] 0.709 | [4] 0.69 | [5] 0.77 | [6] 0.556

B23: EPHA5_HUMAN_656 (peptide)
chain: TYIDPHTYEDPNQAV
inactive: [1] 0.573 | [2] 0.885 | [3] 0.737 | [4] 0.746 | [5] 0.711 | [6] 0.512

B24: EPHA6_HUMAN_978 (peptide)
chain: DSIKMGQYKNNFVAA
inactive: [1] 0.988 | [2] 0.821 | [3] 0.881 | [4] 0.92 | [5] 0.729 | [6] 1.05

B25: EPHB1_HUMAN_928 (peptide)
chain: SAIKMVQYRDSFLTA
inactive: [1] 0.646 | [2] 0.536 | [3] 0.671 | [4] 0.52 | [5] 0.567 | [6] 0.634

B26: EPHB4_HUMAN_987 (peptide)
chain: TGGPAPQYGGGGGGG
inactive: [1] 0.339 | [2] 0.505 | [3] 0.442 | [4] 0.617 | [5] 1.4 | [6] 0.942

B27: ERBB3_HUMAN_1199 (peptide)
chain: DEDEEYEYMNRRRRH
inactive: [1] 0.902 | [2] 0.928 | [3] 0.884 | [4] 0.839 | [5] 0.874 | [6] 1.07

B28: ERBB4_HUMAN_1022 (peptide)
chain: DMMDAEEYLVPQAFN
inactive: [1] 0.858 | [2] 0.776 | [3] 0.739 | [4] 0.719 | [5] 0.716 | [6] 1.05

B29: ERBB3_HUMAN_1197_YA (peptide)
chain: EEDEDEEYEAMNRRR
inactive: [1] 1.33 | [2] 0.841 | [3] 0.632 | [4] 0.733 | [5] 0.817 | [6] 0.977

B30: ERBB3_HUMAN_1197 (peptide)
chain: EEDEDEEYEYMNRRR
inactive: [1] 1.42 | [2] 0.891 | [3] 1.6 | [4] 1.21 | [5] 1.52 | [6] 1.17

B31: ERBB3_HUMAN_1260 (peptide)
chain: GTTPDEDYEYMNRQR
inactive: [1] 0.64 | [2] 0.684 | [3] 0.665 | [4] 0.533 | [5] 0.601 | [6] 0.733

B32: EPHB3_HUMAN_792 (peptide)
chain: DDPSDPTYTSSLGGK
inactive: [1] 0.653 | [2] 0.563 | [3] 0.793 | [4] 0.619 | [5] 0.708 | [6] 0.678

B33: ERBB3_HUMAN_1159 (peptide)
chain: EEEDVNGYVMPDTHL
inactive: [1] 1.05 | [2] 0.952 | [3] 1.08 | [4] 0.888 | [5] 1.03 | [6] 0.969

B34: EPHA6_HUMAN_831 (peptide)
chain: EDDPEAAYTTTGGKI
inactive: [1] 1.02 | [2] 0.781 | [3] 0.893 | [4] 0.759 | [5] 0.851 | [6] 0.857

B35: ADRBK1_HUMAN_92 (peptide)
chain: FYEEIKKYEKLETEE
inactive: [1] 2.1 | [2] 2.41 | [3] 3 | [4] 1.15 | [5] 2.89 | [6] 1.8

B36: EPHA8_HUMAN_793 (peptide)
chain: EDDPDAAYTTTGGKI
inactive: [1] 0.999 | [2] 0.719 | [3] 0.991 | [4] 0.861 | [5] 0.873 | [6] 0.848
